Data on 47 molecules can be found in PubChem BioAssay AID1508624 (National Center for Advancing Translational Sciences (NCATS), 2021).

Screen size: about 48,000 compounds; about 120 (0.25%) were called active. Roughly 4% stayed inconclusive and do not appear here. Calls follow the shape of the dose curve; as a rule, active = well fitted activation curve with a large enough effect; inconclusive = small, poorly fitted or top-dose-only effect, or another doubt; inactive = no such curve, though single readings can be large or run the other way. The list shows a part of the results.

The assay in a line: Primary qHTS for Identification of Small Molecule Activators of Huntingtin-Antisense Promoter Activity. Also: nearly all actives have a fitted effect of over 55% in size. To be noted: HEK293 HTT-AS promoter firefly luciferase reporter, 24 h; series mostly up to 57.5 µM; activity change, positive = activation: at the top concentration. Put shortly:
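HEK293 cells carrying firefly luciferase reporters were seeded at 2,500 per well in Opti-MEM and cultured for 24 h. They were then treated with compounds at up to 57.5 uM final for 24 h at 37 degrees C before Dual-Glo luminescence readout.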
(In general: In qHTS, concentration-response curves come from the screen itself.)
In the case of `COc1ccc(N(C(=O)Cn2nnc3ccccc32)C(C(=O)NCc2ccccc2)c2ccc(F)cc2)cc1` (configuration not stated), the “activity change, positive = activation” value was inactive: -15.9%. With `Cn1nnc2c(NCc3c(F)cccc3F)ncnc21`, the “activity change, positive = activation” value is inactive: 3.89%. The value for `COc1ccc(N2CCN(Cc3nc4c(c(=O)[nH]c(=O)n4C)n3Cc3ccccc3F)CC2)cc1` was inactive: -8.98%; that for `COc1ccc(CCNC(=O)c2cc(=O)c3cc(C)c(C)cc3o2)cc1OC` was inactive: 17.2% [at 11.5 µM, percent change from vehicle, -100% = no light]; that for `Cn1c(=O)c2c(nc(SCC(=O)Nc3ccc(F)c(F)c3)n2Cc2ccccc2F)n(C)c1=O` was inactive: -34.7%.

As for `CCc1ccc(C(=O)CC2(O)C(=O)N(CCc3ccccc3)c3ccc(Cl)cc32)cc1` (configuration not stated), the “activity change, positive = activation” value was inactive: -48.6%. Regarding `Cc1ccc(S(=O)(=O)NCCc2nnc3ccc(SCC(=O)Nc4ccc(F)cc4F)nn23)cc1`, the “activity change, positive = activation” value is inactive: -2.6%. As to `COc1ccc(CCNC(=O)CCc2c(C)nc3cc(-c4cccc(F)c4)nn3c2C)cc1OC`, the “activity change, positive = activation” value was inactive: -50.9%. With `CCOC(=O)Cn1c(=O)n(CC2CCCO2)c2nc(-c3cc(OC)ccc3OC)nc(C(N)=O)c21` (configuration not stated) the figure was inactive: -13.6%; with `CC(C)c1nn2c(=O)cc(COC(=O)c3ccc(NC(=O)c4cccs4)cc3)nc2s1`, inactive: 1.34%; with `CCCOc1ccc(C(=O)N(Cc2ccco2)Cc2ccco2)cc1`, inactive: 0.407%.

With `O=C(NCC(c1cccs1)S(=O)(=O)c1cccs1)c1c(F)cccc1F` (configuration not stated), the “activity change, positive = activation” value is inactive: -12.2%. The value for `COc1ccc(OC(=O)c2nc(SCc3ccccc3C)ncc2Cl)cc1` was inactive: 2.64%; that for `Cc1ccccc1OCC(=O)Nc1ccccc1OCc1cc(=O)n2ccccc2n1` was inactive: 7.4%. `COc1ccnc(CS(=O)c2nc3ccc(OC(F)F)cc3[nH]2)c1OC` (configuration not stated): the activity change, positive = activation result was “inactive”. For `COc1cccc(CSc2nc3n(n2)C(CC(C)C)C(C(=O)Nc2ccccc2C)=C(C)N3)c1` (configuration not stated), the “activity change, positive = activation” value was inactive: -0.845%. The value for `COc1ccc(C(=O)Nc2cccc(C(=O)OCc3cc(=O)n4c5c(sc4n3)CCCC5)c2)cc1` was inactive: -18.1%. `Cc1ccc(CCNC(=O)CCCc2nnc3n(C)c(=O)c4sccc4n23)cc1`: the “activity change, positive = activation” value is inactive: 4.5%. Take `Cc1cc(C)c2c(CC(=O)Nc3cc(C(F)(F)F)ccc3Cl)coc2c1`: the “activity change, positive = activation” value is inactive: -13.1%. With `COc1ccccc1-n1c(=O)n(C)c2c(C(N)=O)nc(-c3cccc(OC)c3OC)nc21` the figure was inactive: -14.8%; with `CC(NC(=O)c1ccc2c(c1)sc1nc(-c3ccc(F)cc3)cn12)C12CC3CC(CC(C3)C1)C2` (configuration not stated), inactive: 15.7%; with `FC(F)(F)c1cccc(Nc2c3c(nc4ccc(Cl)cc24)CCC3)c1`, inactive: -49.7%. With `COc1cc(OC)c(NC(=O)CCc2c(C)nc3c4c(C)cc(C)nc4nn3c2C)cc1Cl` the figure was inactive: -6.28%; with `CCCCCN1C(C(=O)c2ccccc2)=C(OC(=O)CC)c2ccccc2S1(=O)=O`, inactive: -43.3%.

In the case of `COc1cc(NC(=O)C2CCN(S(=O)(=O)c3c(C)noc3/C=C/c3ccccc3F)CC2)cc(OC)c1OC`, the “activity change, positive = activation” value is inactive: -27.1%. As for `Cc1ccc(CCNC(=O)c2ccc(Nc3nc4ccccc4n4nnnc34)cc2)cc1`, the “activity change, positive = activation” value is inactive: 2.95%. With `CCN(CCCNC(=O)Cn1ncc2c([nH]c3ccc(C)cc32)c1=O)c1ccccc1` the figure was inactive: -15.2%; with `N#Cc1cc2c(=O)n3ccccc3nc2n(-c2nnc(SCc3ccccc3Cl)s2)c1=O`, inactive: 8.37%.

Take `CCC(Sc1nc2n[nH]c(C)c2c(=N)n1-c1ccccc1Cl)C(=O)N(CC)CC` (configuration not stated): the “activity change, positive = activation” value is inactive: -22.8%. For `Cc1cccc(NC(=O)c2cc3c(=O)n(Cc4cccnc4)ccc3nc2C)c1`, the “activity change, positive = activation” value is inactive: -7.24%. For `COc1ccc(NC(=O)CCn2cnc3onc(-c4ccc(F)cc4)c3c2=O)cc1OC`, the “activity change, positive = activation” value was inactive: -54%. With `CC1Cn2c(C(=O)NCc3ccccc3Cl)cc3cccc(c32)S1` (configuration not stated) the figure was inactive: -12%. The value for `CCC(=O)N1c2ccccc2CC1C(=O)NCc1cc(Br)ccc1OC` (configuration not stated) was inactive: -2.15%; that for `[Cl][In]([Cl])[Cl]` was inactive: -17.9% [at 116 µM, percent change from vehicle, -100% = no light]; that for `Cc1ccc2oc3c(c(=O)c2c1)C(c1ccc(O)cc1)N(c1nc(C)c(C)s1)C3=O` (configuration not stated) was inactive: -4.25%. The value for `CCC(=O)Nc1nnc(S(=O)(=O)N2c3ccccc3CC2C)s1` (configuration not stated) was inactive: -9.63%.

As to `CC(C)Cc1ccc(C(C)C(=O)O)cc1` (configuration not stated), the activity change, positive = activation result was “inactive”. With `Cc1ccc(CNc2nc3ccccc3n3cnnc23)cc1` the figure was inactive: -8.95%; with `Cc1csc2nc(COC(=O)c3ccc(NC(=O)C(C)Oc4ccccc4)cc3)cc(=O)n12` (configuration not stated), inactive: -29.3%; with `COc1ccc(NC(=O)c2cnc(N3CCCC3)nc2)cc1OC`, inactive: -0.561%. With `COc1ccc(CN2CCN(C(c3ccc(F)cc3)c3ccc(F)cc3)CC2)c(OC)c1OC` the figure was inactive: -26.9%; with `CCCC1=Nc2cc(C(=O)N3CCC(C(=O)OCC)CC3)ccc2Sc2ccccc21`, inactive: -32.6%; with `Cc1cccc(NC(=O)C2CCCN2S(=O)(=O)c2ccc3c(c2)n(C)c(=O)c(=O)n3C)c1` (configuration not stated), inactive: -0.0064%. The value for `Cc1cc(C)c2oc(-c3cccc(NC(=O)c4ccc(-c5cccc([N+](=O)[O-])c5)o4)c3)nc2c1` was inactive: 12.2%. For the molecule `O=C(NCc1cccc(F)c1)c1ccccc1NC(=O)c1nsc2ccccc12`, the “activity change, positive = activation” value was inactive: -9.26%.

Take `O=C(C1CCCN(S(=O)(=O)c2cccc3nsnc23)C1)N1CCN(c2cccc(Cl)c2)CC1` (configuration not stated): the “activity change, positive = activation” value was inactive: -71.1%. The value for `Cc1ccc2nc(-c3ccccn3)c(Nc3ccccc3C)n2c1` was inactive: -75.3%.
